Measured values as given in patent US20200199192A1 (SHIRE NPS PHARMACEUTICALS, published 2020).

T1: human GLP-2 receptor (human, UniProt O95838 1-553)
T1 sequence (looked up): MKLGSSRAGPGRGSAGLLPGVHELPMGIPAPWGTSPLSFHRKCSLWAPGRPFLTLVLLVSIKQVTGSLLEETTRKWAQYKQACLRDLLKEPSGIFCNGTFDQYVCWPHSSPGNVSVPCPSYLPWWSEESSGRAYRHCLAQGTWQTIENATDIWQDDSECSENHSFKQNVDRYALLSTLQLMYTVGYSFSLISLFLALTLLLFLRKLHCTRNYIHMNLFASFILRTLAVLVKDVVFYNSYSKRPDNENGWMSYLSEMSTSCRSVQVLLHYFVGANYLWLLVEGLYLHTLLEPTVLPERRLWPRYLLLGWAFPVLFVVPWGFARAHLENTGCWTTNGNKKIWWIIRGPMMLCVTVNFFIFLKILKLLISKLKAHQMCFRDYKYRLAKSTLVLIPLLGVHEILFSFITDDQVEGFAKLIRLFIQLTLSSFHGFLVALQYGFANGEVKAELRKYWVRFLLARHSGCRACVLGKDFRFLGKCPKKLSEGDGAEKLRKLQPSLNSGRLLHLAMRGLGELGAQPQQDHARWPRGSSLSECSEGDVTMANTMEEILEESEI


What follows are binders tested against T1, human GLP-2 receptor (assay: cell-based or functional assay).

Row | Binder | EC50 (nM), cAMP Hunter eXpress GLP2R CHO-K1 GPCR assay [nM]
1 | GLP-2 peptibody L (Fc fusion, GLP-2[A2G]-GGGGGGG-IgG1 Fc (LALA)) HGDGSFSDEMNTILDNLAARDFINWLIQTKITDGGGGGGG[letters of human IgG1 Fc with changes left out] | 6.16
2 | GLP-2 peptibody J (Fc fusion, GLP-2[A2G]-long GAP/G/A linker-IgG1 Fc (LALA)) HGDGSFSDEMNTILDNLAARDFINWLIQTKITDGAPGGGGGAAAAAGGGGGGAPGGGGGAAAAAGGGGGGAPGGGGGAAAAAGGGGGGAP[letters of human IgG1 Fc with changes left out] | 3.23
3 | GLP-2 peptibody A (Fc fusion) HGDGSFSDEMNTILDNLAARDFINWLIQTKITD[letters of human IgG1 Fc with changes left out] | 128

Results, then the binder that gave them:

Row | EC50 (nM), cAMP Hunter eXpress GLP2R CHO-K1 GPCR assay [nM] | Binder
4 | 2.43 | GLP-2 peptibody E (Fc fusion) HGDGSFSDEMNTILDNLAARDFINWLIQTKITDGGGGGGSGGGGSGGGGS[letters of human IgG1 Fc with changes left out]
5 | 4.51 | GLP-2 peptibody M (Fc fusion, GLP-2[A2G]-(GGGGS)2-IgG1 Fc (LALA)) HGDGSFSDEMNTILDNLAARDFINWLIQTKITDGGGGSGGGGS[letters of human IgG1 Fc with changes left out]
